# PMC4336329 (PLoS ONE, 2015)
# Out of some 310,000 compounds screened, about 14,000 (4.5%) showed an effect of 50% or more. The effect is printed as a negative number. The list shows a part of the results.
# Molecular target: human ether-à-go-go-related gene (hERG) potassium channel (human, UniProt Q12809)
# Experiment: primary screen, population patch clamp on CHO cells stably expressing hERG
# 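Also: peak tail current of the secondary pulse compared with the same well before compound.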
# Sequence of human ether-à-go-go-related gene (hERG) potassium channel (Q12809 whole entry, looked up): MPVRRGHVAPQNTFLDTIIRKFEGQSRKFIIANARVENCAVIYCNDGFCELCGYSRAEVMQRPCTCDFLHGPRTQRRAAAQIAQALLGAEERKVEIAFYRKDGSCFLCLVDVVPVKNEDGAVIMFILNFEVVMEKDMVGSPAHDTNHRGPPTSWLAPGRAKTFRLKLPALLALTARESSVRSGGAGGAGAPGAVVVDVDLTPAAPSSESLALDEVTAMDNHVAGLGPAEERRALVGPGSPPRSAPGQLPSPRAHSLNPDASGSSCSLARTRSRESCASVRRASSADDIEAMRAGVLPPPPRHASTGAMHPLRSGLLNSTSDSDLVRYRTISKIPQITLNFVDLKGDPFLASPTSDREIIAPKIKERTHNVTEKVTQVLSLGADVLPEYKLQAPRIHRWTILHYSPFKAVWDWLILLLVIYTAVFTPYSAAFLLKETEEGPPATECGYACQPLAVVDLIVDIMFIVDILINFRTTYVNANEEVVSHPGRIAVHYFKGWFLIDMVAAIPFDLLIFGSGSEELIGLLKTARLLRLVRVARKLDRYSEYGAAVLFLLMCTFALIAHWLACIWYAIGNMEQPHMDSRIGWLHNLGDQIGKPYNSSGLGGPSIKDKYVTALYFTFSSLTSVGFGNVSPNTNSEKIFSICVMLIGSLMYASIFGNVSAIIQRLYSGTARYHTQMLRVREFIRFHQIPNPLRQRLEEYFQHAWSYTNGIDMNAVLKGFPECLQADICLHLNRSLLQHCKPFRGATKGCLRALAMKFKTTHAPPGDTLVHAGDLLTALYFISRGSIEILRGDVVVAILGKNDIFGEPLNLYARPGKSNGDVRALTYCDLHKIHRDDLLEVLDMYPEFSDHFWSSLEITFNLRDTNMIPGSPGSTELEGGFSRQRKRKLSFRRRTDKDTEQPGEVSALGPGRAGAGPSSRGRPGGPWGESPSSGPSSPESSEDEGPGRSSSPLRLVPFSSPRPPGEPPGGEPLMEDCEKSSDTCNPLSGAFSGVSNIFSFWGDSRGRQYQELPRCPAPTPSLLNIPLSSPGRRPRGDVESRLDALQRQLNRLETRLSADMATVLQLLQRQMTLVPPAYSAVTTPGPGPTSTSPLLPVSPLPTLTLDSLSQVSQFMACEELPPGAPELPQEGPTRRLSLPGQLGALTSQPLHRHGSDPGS
row,Compound,"hERG current change (%, negative = inhibition) at 10uM"
1,Cc1ccc(-c2nc(CS(=O)(=O)CC(=O)NCCN3CCOCC3)c(C)o2)cc1,7.65%
2,O=C(OCc1cc(=O)n2c(n1)sc1ccccc12)c1cccc(O)c1,9.1%
3,O=C(NCCn1cc(SCc2ccc(F)cc2)c2ccccc21)c1ccccc1F,-1.34%
4,O=C(COC(=O)c1cc([N+](=O)[O-])ccc1N1CCOCC1)Nc1cc(F)ccc1F,-49.8%
5,CCOC(=O)C1CCN(C(=O)c2cc(S(=O)(=O)N3CCCCC3)ccc2C)CC1,-7.08%
6,Cc1nc2ccccc2n1-c1nc(-c2ccco2)cc(C(F)(F)F)n1,5.46%
7,C=C(C)COc1ccc(-c2ncncc2-c2ccc(Cl)cc2)c(O)c1,13.9%
8,O=C(Nc1ccc(Cl)c(Cl)c1)N1CCSC1c1ccco1 (stereo not drawn),-5.48%
9,CN(C)CCNC(=O)CNC(=S)N(CCCN1CCOCC1)Cc1cccs1,12.1%
10,Cc1[nH]n(-c2ccccc2)c(=O)c1/C=N/O,-6.11%
11,Cc1nc(-c2ccc(Cl)cc2)sc1C(=O)NNC(=O)C(C)C,10.7%
12,CCNC(=O)c1c(O)c2ccccc2[nH]c1=O,-62.5%
13,COc1cc(NCCCCCCCN)c2ncccc2c1.O=C(O)CCC(=O)O,8.46%
14,Cc1ccc(S(=O)(=O)c2nc(-c3ccccc3)oc2N2CCCC2)cc1,16.4%
15,COc1cccc(C(=O)NNC(=O)C(=O)Nc2ccc(C)c(Cl)c2)c1,13.7%
16,CCC/C(O)=C1\C(=O)CCCC1=NCCc1c(C)[nH]c2ccc(OC)cc12,13.1%
17,COc1ccc(C2C(C(=O)c3cccs3)=C(O)C(=O)N2c2cccc(C)n2)cc1 (stereo not drawn),-3.18%
18,CC/C(O)=C1\C(=O)CC(c2ccccc2)CC1=NCCc1c(C)[nH]c2ccc(C)cc12 (stereo not drawn),-0.144%
19,COc1cc(C(=O)NCC2CCCO2)ccc1OCc1ccccc1Cl (stereo not drawn),-30.7%
20,CC12CCC(C(=O)Nc3nc4ccc(Br)cc4s3)(OC1=O)C2(C)C (stereo not drawn),-2.78%
21,CC1(O)CC(=O)N(c2ccccc2)O1 (stereo not drawn),-1.7%
22,CCOc1cc(CNc2ccc(N3CCN(C(C)=O)CC3)cc2)cc(Br)c1OC,-5.28%
23,Clc1ccc(-c2cn3nc4c(nc3n2)CCCC4)cc1,-15.3%

row,Compound,"hERG current change (%, negative = inhibition) at 10uM"
1,CC1CC(C)CN(Cc2nc(N)nc(Nc3ccc4ccccc4c3)n2)C1 (stereo not drawn),-79%
2,COC(=O)c1ccc(=O)n(CC(=O)c2ccc(Cl)cc2)c1,-6.81%
3,CCC1CC(CSc2ncn[nH]2)OC1=O (stereo not drawn),6.84%
4,CC(=O)Nc1ccc(S(=O)(=O)Nc2ccc(Nc3ccccc3)cc2)cc1,17.1%
5,O=C1CC(N2CCN(c3ccc(F)cc3)CC2)C(=O)N1c1ccc2c(c1)OCO2 (stereo not drawn),6.71%
6,CCOC(=O)Cc1csc(NC(=O)/C=C/c2cccc(Br)c2)n1,6.18%
7,Cn1c(SCc2ccc(Br)cc2)nc2ccccc2c1=O,12.3%
8,CCOc1ccccc1NS(=O)(=O)c1cn(C)nc1C,6.71%
9,COc1c2c(cc3c1C(CC(O)Cc1ccccc1)N(C)CC3)OCO2 (stereo not drawn),-61.3%
10,O=C(Nc1cc([N+](=O)[O-])ccc1F)c1cccs1,1.86%
11,COC(=O)[C@@H]1C[C@@]2(O)[C@@H](O)[C@@H](O)[C@@H](O)C[C@H]2N1CC1CCCCC1,20.3%
12,CCN(CC)S(=O)(=O)c1ccc2nc(CSc3nnnn3-c3ccc(O)cc3)[nH]c2c1,-53.9%
13,CN(Cc1ccccc1)C(=O)c1cc(S(=O)(=O)N2CCOCC2)cn1C,-7.13%
14,CN(C)c1ccc(/C=C(\Cl)c2nc3ccccc3s2)cc1,-6.87%
15,COc1ccc(/C=C/C(=O)OCc2cc(=O)n3c(n2)sc2ccccc23)cc1,-16.8%
16,O=C(OCC(=O)N1CCCC1)c1cc(Cl)ccc1[N+](=O)[O-],5.83%
17,CCCOc1ccc(C(CC(=O)O)NC(=O)c2sc3ccccc3c2Cl)cc1 (stereo not drawn),-3.36%
18,CC(=O)Nc1ccc(S(=O)(=O)N2CCC(n3cnc4cc(F)ccc43)CC2)cc1,-65.7%
19,CCNc1oc(-c2ccccc2F)nc1S(=O)(=O)c1ccccc1,13.9%
20,CC(=O)N(C)N(C)c1cc(C)nc(N)n1,8.83%
21,COc1ccc(NC(=O)CN2CCN(S(=O)(=O)c3ccc(Cl)cc3)CC2)cc1Cl,-0.308%
22,Nc1c(Cl)ncnc1NCC(O)CO (stereo not drawn),17.7%
23,CC(C)CC(NC(N)=O)C(=O)NCc1ccccc1Cl (stereo not drawn),11.2%

row,Compound,"hERG current change (%, negative = inhibition) at 10uM"
1,COc1ccc(-c2c(-c3ccccc3OC)sc3ccccc23)cc1C=O,23.5%
2,CC(=O)Nc1ccc(NS(=O)(=O)c2ccc(CN3C(=O)c4cccnc4C3=O)cc2)cc1,20.9%
3,CCOC(=O)N1CCN(C(=O)c2cn(C)c(=O)c3c2c2ccccc2n3C)CC1,-7.75%
4,NNC(=S)Nc1ccc(C(F)(F)F)cc1Cl,7.18%
5,S=C(NCCc1ccccc1)Nc1c(Cl)cccc1Cl,6.52%
6,O=c1[nH]cc(COCC(F)CCl)c(=O)[nH]1 (stereo not drawn),-6.67%
7,CS(=O)(=O)N(CCc1ccccc1)CC(=O)NCc1ccc(Cl)cc1,-45.9%
8,Cc1nnc(SCC(=O)Nc2ccc3[nH]c(=O)[nH]c3c2)s1,-9.64%
9,COc1ccccc1-c1nnc(SCC(=O)O)n1-c1ccc(C)cc1,0.246%
10,CCOC(=O)c1cnc(SC)nc1NCCOC,9.72%
11,O=C(N/N=C/c1ccco1)c1cc2ccccc2o1,2.33%
12,COc1ccc(S(=O)(=O)N2CCN(C(=O)CCNC(=O)c3ccccc3Cl)CC2)cc1,-23.3%
13,CCn1nc(C)c(NC(=O)CC23CC4CC(CC(C4)C2)C3)c1C,13.7%
14,CC(=O)Nc1nnc(-c2c(-c3ccccc3Cl)noc2C)o1,11.1%
15,O=C(NNC(=O)c1cc2ccccc2cc1O)NC1CCCCC1,22.8%
16,Cc1c(Cc2ccccc2)sc(NC(=O)c2ccco2)c1C(N)=O,6.99%
17,COc1ccccc1NC(=O)CSc1ccc2nnc(-c3ccc(C)cc3)n2n1,-26.6%
18,Cc1ccc(OCC(=O)OC(C)C(=O)NC2CCCCC2C)cc1C (stereo not drawn),-1.91%
19,O=C(COC(=O)c1cccs1)Nc1cccc(Cl)c1,10.2%
20,CC(C)(C)c1ccc(C(=O)Nc2cccc([N+](=O)[O-])c2)cc1,-5.5%
21,COC(=O)C1=C(C)N=C2SC(C#N)=C(N)N2C1c1ccc(OCc2ccccc2)cc1 (stereo not drawn),0.349%
22,CCOc1ccccc1NC(=O)Cn1c(-c2ccc(Cl)cc2)noc1=O,-2.01%
23,O=C(O)C[C@H]1c2cc(F)ccc2S(=O)(=O)N1C1CCN(Cc2ccccc2)CC1,7.58%

row,Compound,"hERG current change (%, negative = inhibition) at 10uM"
1,COc1ccc(CCN=C(C)c2cc(C)c(C)cc2O)cc1OC,5.79%
2,OCC[C@H]1C[C@@H](O)[C@H](O)[C@@]2(CCc3ccccc3CO2)O1,-1.53%
3,Cc1ccc(C2CCN(C(=S)NC(C)(C)C)C2)cc1 (stereo not drawn),0.155%
4,Nc1nc(N)nc(-c2cc(Cl)ccc2Cl)n1.O=C(O)/C=C\C(=O)O,-8.52%
5,O=C(NC(Cc1c[nH]c2ccccc12)C(=O)O)c1ccc2c(c1)OCO2 (stereo not drawn),19.1%
6,COc1ccccc1NC(=O)N1C2CCCC1CC(NC(=O)c1ccccc1)C2 (stereo not drawn),11.6%
7,COc1ccccc1NC(=O)Nc1nc(CC(=O)Nc2ccc(F)cc2)cs1,-1.25%
8,CNC(=O)COC(=O)COc1ccc2c(C)cc(=O)oc2c1,21.7%
9,Cc1cc(N2CCCC2)nc2ccccc12,-41.2%
10,CC(C)CCNC(=O)C(=O)NCCC1=CCCCC1,9.15%
11,COC(=O)c1ccc(N2CCN(S(=O)(=O)c3ccc(C)cc3)CC2)c([N+](=O)[O-])c1,4.78%
12,COc1ccc(N2CCN(c3cc(C)c4ccc(O)cc4n3)CC2)cc1,-24.4%
13,CC(C)(CC(=O)O)CC(=O)NNc1ncccc1C#N,18.4%
14,CC1CC(C)CN(CCCNC(=O)Cc2c(C(=O)O)[nH]c3ccccc23)C1 (stereo not drawn),15.7%
15,Cc1ccc(-c2c3c(=O)n(C)c(=O)n(C)c3cn2Cc2ccccn2)cc1,-0.562%
16,O=C(CCCNC(=O)c1ccc(Cl)cc1)Nc1ccccc1F,7%
17,Cc1cccc(C(=O)N2CCN(S(=O)(=O)c3ccc4c(c3)OCCCO4)CC2)c1[N+](=O)[O-],-4.78%
18,O=C(COc1ccccc1[N+](=O)[O-])NCCCN1CCCC1=O,12.5%
19,CCOc1ccccc1CNC(=O)c1ccccc1NC(=O)C1=CSCCO1,15.4%
20,Cc1ccc(S(=O)(=O)N2CCCCC2)cc1NC(=O)c1ccc(Br)o1,-37.3%
21,CCOC(=O)c1nn(-c2ccc(OCC)cc2)c(C)c1C(C)=O,-4.47%
